Source: PMC3608554
These are yes or no findings as the source states them, for the method shown. For some of these results: In cells and extracts the contact can be indirect. Some entries that bind do so weakly or less than the wild type. For some of these results: Sequences can lack the tags named with a protein.

Legend:
[1] = target: T1, BANK1 N-terminal truncated form (aa 331–785), yeast two-hybrid bait (human) (UniProt Q8NDB2); experiment: two-hybrid; screen by Hybrigenics; bait truncated BANK1 (aa 331-785), not autoactivating, against a human leukocyte and mononuclear cell library; 6x10^6 interactions tested
T1 sequence: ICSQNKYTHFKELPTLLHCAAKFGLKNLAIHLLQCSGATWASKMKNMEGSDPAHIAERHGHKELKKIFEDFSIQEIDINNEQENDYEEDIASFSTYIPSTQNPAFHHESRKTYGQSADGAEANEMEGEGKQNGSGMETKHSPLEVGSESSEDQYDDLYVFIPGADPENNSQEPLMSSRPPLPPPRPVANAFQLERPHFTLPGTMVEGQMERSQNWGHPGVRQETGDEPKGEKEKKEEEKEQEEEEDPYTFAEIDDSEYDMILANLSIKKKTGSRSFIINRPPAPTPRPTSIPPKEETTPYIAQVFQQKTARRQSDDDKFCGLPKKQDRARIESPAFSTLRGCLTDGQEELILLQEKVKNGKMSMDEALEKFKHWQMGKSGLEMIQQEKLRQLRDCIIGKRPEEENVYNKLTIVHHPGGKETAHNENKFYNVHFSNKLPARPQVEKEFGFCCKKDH

[2] = target: T2, PLCg2-V5 (human) (UniProt P16885); experiment: co-IP; HEK293 cells expressing BANK1 and PLCg2 only, no kinase co-expressed
T2 sequence: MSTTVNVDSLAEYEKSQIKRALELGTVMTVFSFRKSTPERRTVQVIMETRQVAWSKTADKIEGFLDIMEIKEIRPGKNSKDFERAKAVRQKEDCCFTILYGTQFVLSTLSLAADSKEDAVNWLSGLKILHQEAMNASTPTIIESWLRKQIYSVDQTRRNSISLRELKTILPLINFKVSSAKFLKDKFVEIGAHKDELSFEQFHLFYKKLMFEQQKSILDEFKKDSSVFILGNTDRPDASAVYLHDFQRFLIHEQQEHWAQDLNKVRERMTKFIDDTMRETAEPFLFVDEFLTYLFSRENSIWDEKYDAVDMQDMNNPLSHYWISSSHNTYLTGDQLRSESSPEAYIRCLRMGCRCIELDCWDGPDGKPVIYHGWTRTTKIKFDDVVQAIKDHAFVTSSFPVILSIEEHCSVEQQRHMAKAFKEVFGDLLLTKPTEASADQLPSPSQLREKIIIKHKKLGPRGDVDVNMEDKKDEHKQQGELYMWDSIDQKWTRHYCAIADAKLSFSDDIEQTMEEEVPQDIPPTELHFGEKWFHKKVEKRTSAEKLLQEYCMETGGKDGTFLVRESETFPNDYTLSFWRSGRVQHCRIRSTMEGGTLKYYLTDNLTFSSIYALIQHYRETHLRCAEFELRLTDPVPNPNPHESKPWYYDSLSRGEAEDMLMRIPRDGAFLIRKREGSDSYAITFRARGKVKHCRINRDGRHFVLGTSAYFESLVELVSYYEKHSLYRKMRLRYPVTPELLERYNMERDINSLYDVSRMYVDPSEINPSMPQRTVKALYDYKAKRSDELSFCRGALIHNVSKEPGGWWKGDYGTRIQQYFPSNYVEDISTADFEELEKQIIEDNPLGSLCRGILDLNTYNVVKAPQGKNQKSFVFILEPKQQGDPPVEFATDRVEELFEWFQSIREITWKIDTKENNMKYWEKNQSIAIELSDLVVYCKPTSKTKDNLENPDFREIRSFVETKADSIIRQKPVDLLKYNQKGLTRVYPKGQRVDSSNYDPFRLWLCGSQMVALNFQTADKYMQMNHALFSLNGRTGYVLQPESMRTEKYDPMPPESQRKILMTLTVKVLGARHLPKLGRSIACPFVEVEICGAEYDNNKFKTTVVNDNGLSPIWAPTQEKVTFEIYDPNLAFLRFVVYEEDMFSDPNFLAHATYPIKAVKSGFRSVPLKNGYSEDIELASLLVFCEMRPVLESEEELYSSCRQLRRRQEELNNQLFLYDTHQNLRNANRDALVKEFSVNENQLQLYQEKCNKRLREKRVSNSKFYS

[3] = target: T2, PLCg2-V5 (human); experiment: condition: only co-expressed with GFP, no active kinase; co-IP; HEK293 co-transfected with Flag-BANK1, PLCg2-V5 and GFP-V5 (no kinase activity); IP anti-PLCg2, blot anti-BANK1
[4] = target: T2, PLCg2-V5 (human); experiment: condition: only co-expressed with kinase dead BLK-KL, no active kinase; co-IP; HEK293 co-transfected with Flag-BANK1, PLCg2-V5 and kinase dead BLK-KL-V5 (K269L); IP anti-PLCg2, blot anti-BANK1
[5] = target: T3, PLCg2, endogenous in human B-cell lines (human (endogenous in Daudi)) (UniProt P16885); experiment: proximity ligation; in situ PLA (Duolink II), endogenous proteins in fixed non-stimulated Daudi and RL cells; rabbit anti-BANK1 and mouse anti-PLCg2
T3 sequence: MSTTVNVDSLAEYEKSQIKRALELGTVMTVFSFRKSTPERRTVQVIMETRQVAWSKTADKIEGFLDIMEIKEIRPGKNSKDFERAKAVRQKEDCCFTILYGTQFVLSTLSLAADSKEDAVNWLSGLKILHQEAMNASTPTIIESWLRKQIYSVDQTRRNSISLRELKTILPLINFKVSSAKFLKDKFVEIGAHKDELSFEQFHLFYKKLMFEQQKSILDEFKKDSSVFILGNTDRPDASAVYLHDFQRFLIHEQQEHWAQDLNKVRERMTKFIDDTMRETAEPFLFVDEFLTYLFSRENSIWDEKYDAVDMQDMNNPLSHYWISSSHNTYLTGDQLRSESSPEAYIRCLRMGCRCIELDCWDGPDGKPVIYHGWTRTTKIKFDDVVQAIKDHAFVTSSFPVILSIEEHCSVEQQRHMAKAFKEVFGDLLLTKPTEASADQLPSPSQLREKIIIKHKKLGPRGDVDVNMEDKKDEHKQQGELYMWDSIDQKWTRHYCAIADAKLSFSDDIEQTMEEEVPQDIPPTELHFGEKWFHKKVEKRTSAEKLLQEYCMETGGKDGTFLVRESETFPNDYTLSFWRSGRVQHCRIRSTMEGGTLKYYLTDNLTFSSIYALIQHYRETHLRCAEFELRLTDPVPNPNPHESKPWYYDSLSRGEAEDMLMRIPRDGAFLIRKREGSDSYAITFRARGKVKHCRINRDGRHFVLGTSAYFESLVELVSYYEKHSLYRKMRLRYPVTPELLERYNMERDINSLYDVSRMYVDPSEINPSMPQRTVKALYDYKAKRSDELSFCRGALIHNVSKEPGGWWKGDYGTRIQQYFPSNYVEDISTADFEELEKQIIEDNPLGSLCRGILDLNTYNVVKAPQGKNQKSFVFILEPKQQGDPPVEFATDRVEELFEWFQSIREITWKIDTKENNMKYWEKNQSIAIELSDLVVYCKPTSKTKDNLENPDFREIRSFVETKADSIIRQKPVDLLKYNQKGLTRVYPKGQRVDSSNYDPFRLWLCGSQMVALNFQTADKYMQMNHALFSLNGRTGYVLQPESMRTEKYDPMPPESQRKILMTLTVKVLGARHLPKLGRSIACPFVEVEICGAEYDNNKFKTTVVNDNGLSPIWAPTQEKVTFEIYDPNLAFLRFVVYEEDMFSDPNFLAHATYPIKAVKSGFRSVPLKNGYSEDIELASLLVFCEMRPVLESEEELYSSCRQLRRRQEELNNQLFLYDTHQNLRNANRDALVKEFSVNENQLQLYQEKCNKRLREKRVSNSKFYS

[6] = target: T3, PLCg2, endogenous in human B-cell lines (human (endogenous in Daudi)); experiment: proximity ligation; in situ PLA (Duolink II), endogenous proteins in fixed Daudi and RL cells (also an EBV-transformed B cell line) stimulated with anti-human IgM F(ab')2; rabbit anti-BANK1 and mouse anti-PLCg2; maximum at 1 min, back to the initial level after 15-20 min; also in shControl and BLK-silenced Daudi cells
[7] = target: T3, PLCg2, endogenous in human B-cell lines (human (endogenous in Daudi)); experiment: co-IP; endogenous proteins, Daudi cells stimulated with 10 ug/mL goat F(ab')2 anti-human IgM; 1% NP-40 lysate; IP anti-PLCg2 and blot anti-BANK1, or reverse IP anti-BANK1 and blot anti-PLCg2; also in shControl and BLK-silenced (shBLK) Daudi cells, where the association was reduced

B1: Saposin C, two-hybrid prey (domain or fragment, UniProt P07602 311-390)
chain: SDVYCEVCEFLVKEVTKLIDNNKTEKEILDAFDKMCSKLPKSLSEECQEVVDTYGSSILSILLEEVSPELVCSMLHLCSG
[1]
  binding: binds

B2: Flag-BANK1 full-length, expressed in HEK293 cells without an active kinase (protein, UniProt Q8NDB2 1-785)
chain: MLPAAPGKGLGSPDPAPCGPAPPGNTKDIIMIYEEDAEEWALYLTEVFLHVVKREAILLYRLENFSFRHLELLNLTSYKCKLLILSNSLLRDLTPKKCQFLEKILHSPKSVVTLLCGVKSSDQLYELLNISQSRWEISTEQEPEDYISVIQSIIFKDSEDYFEVNIPTDLRAKHSGEISERKEIEELSEASRNTIPLAVVLPTEIPCENPGEIFIILRDEVIGDTVEVEFTSSNKRIRTRPALWNKKVWCMKALEFPAGSVHVNVYCDGIVKATTKIKYYPTAKAKECLFRMADSGESLCQNSIEELDGVLTSIFKHEIPYYEFQSLQTEICSQNKYTHFKELPTLLHCAAKFGLKNLAIHLLQCSGATWASKMKNMEGSDPAHIAERHGHKELKKIFEDFSIQEIDINNEQENDYEEDIASFSTYIPSTQNPAFHHESRKTYGQSADGAEANEMEGEGKQNGSGMETKHSPLEVGSESSEDQYDDLYVFIPGADPENNSQEPLMSSRPPLPPPRPVANAFQLERPHFTLPGTMVEGQMERSQNWGHPGVRQETGDEPKGEKEKKEEEKEQEEEEDPYTFAEIDDSEYDMILANLSIKKKTGSRSFIINRPPAPTPRPTSIPPKEETTPYIAQVFQQKTARRQSDDDKFCGLPKKQDRARIESPAFSTLRGCLTDGQEELILLQEKVKNGKMSMDEALEKFKHWQMGKSGLEMIQQEKLRQLRDCIIGKRPEEENVYNKLTIVHHPGGKETAHNENKFYNVHFSNKLPARPQVEKEFGFCCKKDH
[2]
  binding: binds weakly
[3]
  binding: no binding
[4]
  binding: no binding

B3: BANK1, endogenous in human B-cell lines (protein, UniProt Q8NDB2 1-785)
chain: MLPAAPGKGLGSPDPAPCGPAPPGNTKDIIMIYEEDAEEWALYLTEVFLHVVKREAILLYRLENFSFRHLELLNLTSYKCKLLILSNSLLRDLTPKKCQFLEKILHSPKSVVTLLCGVKSSDQLYELLNISQSRWEISTEQEPEDYISVIQSIIFKDSEDYFEVNIPTDLRAKHSGEISERKEIEELSEASRNTIPLAVVLPTEIPCENPGEIFIILRDEVIGDTVEVEFTSSNKRIRTRPALWNKKVWCMKALEFPAGSVHVNVYCDGIVKATTKIKYYPTAKAKECLFRMADSGESLCQNSIEELDGVLTSIFKHEIPYYEFQSLQTEICSQNKYTHFKELPTLLHCAAKFGLKNLAIHLLQCSGATWASKMKNMEGSDPAHIAERHGHKELKKIFEDFSIQEIDINNEQENDYEEDIASFSTYIPSTQNPAFHHESRKTYGQSADGAEANEMEGEGKQNGSGMETKHSPLEVGSESSEDQYDDLYVFIPGADPENNSQEPLMSSRPPLPPPRPVANAFQLERPHFTLPGTMVEGQMERSQNWGHPGVRQETGDEPKGEKEKKEEEKEQEEEEDPYTFAEIDDSEYDMILANLSIKKKTGSRSFIINRPPAPTPRPTSIPPKEETTPYIAQVFQQKTARRQSDDDKFCGLPKKQDRARIESPAFSTLRGCLTDGQEELILLQEKVKNGKMSMDEALEKFKHWQMGKSGLEMIQQEKLRQLRDCIIGKRPEEENVYNKLTIVHHPGGKETAHNENKFYNVHFSNKLPARPQVEKEFGFCCKKDH
[5]
  binding: binds weakly
[6]
  binding: binds
[7]
  binding: binds
